# Patent US20200199216A1 (KINDRED BIOSCIENCES, published 2020)
# Several values for one entry are separate records, joined by “and”; a condition that tells them apart may be missing. Equal values may be shown once.
# T1: canine IL17A-polyHis (canine, biotinylated (EZ-Link NHS-LC-biotin) in the biosensor assays)
# T1 construct: also called biotinylated canine IL17A-polyHis; not shown: poly-His tag on the C-terminal
# T1 chain: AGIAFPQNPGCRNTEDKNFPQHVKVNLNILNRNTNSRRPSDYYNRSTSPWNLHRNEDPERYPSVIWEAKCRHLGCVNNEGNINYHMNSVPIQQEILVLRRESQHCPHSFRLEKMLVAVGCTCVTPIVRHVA
# B1: canine IL17Ra ECD-huFc-polyHis (Fc fusion)
# chain: MGRLGEGLNCTVKNSTCLDDSWIHPRNLTPSSPKDVQVHLDFAQTQHGDLLPIIGIRWTLQTDASILFLEGAELSVLQLNTNERVCVKFEFLSKLKHHHKRWHFTFSHFVVEPGQEYEVTVHHLPKPIPDGDPNHQSKNFLVPGCEDPRMRMTTPCVSSGSLWDPNITAEALEAHQLQVHFTLWNESAQYQILLTSFPHTENRSCFHRVLMVPEPTLKEHHQRANIMLTGSSSNWCCRHQVQIQPFFSSCLNDCLRHSVTVPCPEIPDAPVSIADYIGSENLYFQ[not shown - human IgG1 Fc and a few adjoining residues]
# notes: It also holds a linker, human Fc and His tag
# Molecular target: T1, canine IL17A-polyHis
# Assay: BLI (Octet); biotinylated canine IL17A-polyHis on streptavidin sensors, several runs
# Protocol: The binding affinity of canine IL17A-polyHis to canine IL17Ra ECD-huFc-polyHis was assessed using biolayer interferometry. Briefly, canine IL17A-polyHis was biotinylated and captured to streptavidin biosensors. The association of canine IL17Ra ECD-huFc-polyHis was monitored for 90 seconds. Dissociation was monitored for 600 seconds. A buffer only blank curve was subtracted to correct for any drift. The data were fit to a 1:1 binding model using ForteBio™ data analysis software to determine the kon, koff, and the Kd. The buffer for dilutions and all binding steps was: 20 mM phosphate, 150 mM NaCl, pH 7.2.
binder,measurement,value
B1,Kd,1.5 nM and 4.2 nM
